Test results reported in PMC10989010, “A panel of janus kinase inhibitors identified with anti-inflammatory effects protect mice from lethal influenza virus infection” (Antimicrobial Agents and Chemotherapy, 2024).

Assays:
[1] = test system: influenza virus A/Puerto Rico/8/1934 (H1N1); type: in vivo, BALB/c mice; conditions: for survival rate: 10 mg/kg oral twice daily for 5 days from day 3 p.i.; for body weight / protection against the lethal infection / recovery of body weight: mouse, in vivo
[2] = test system: influenza virus A/Puerto Rico/8/1934 (H1N1)
[3] = 125 TCID50 PR8, 15 mg/kg oral twice daily for 5 days from day 3 p.i.
[4] = 500 TCID50 PR8, 20 mg/kg oral twice daily for 5 days from day 3 p.i., 14 days
[5] = 125 TCID50 PR8, 7.5 mg/kg oral twice daily for 5 days from day 3 p.i.

With `N#CC[C@H](C1CCCC1)n1cc(-c2ncnc3[nH]ccc23)cn1` [Ruxolitinib] the infected mice protected [1, 3] was 50%, the survival rate ([1]; 500 TCID50 PR8, 14 days) was 60% and the body weight [1] was “gradually regained body weight”.
In the case of `CNS(=O)(=O)C[C@H]1CC[C@H](N(C)c2ncnc3[nH]ccc23)CC1` [Oclacitinib maleate], the clinical score ([2]; 300 TCID50, 20 mg/kg/d, day 9 p.i.) is reported as “lowest among all the groups”, the body weight ([2]; 300 TCID50, 40, 20 and 10 mg/kg/d, after day 9 p.i.) is reported as “started to gain body weight” and the “survival (infected mice protected)” value ([2]; 300 TCID50 PR8, 10 mg/kg/d intraperitoneal, from day 3 p.i. for 5 days, 21 days) is reported as 50%. For the same compound, the survival rate ([2]; 300 TCID50 PR8, 40 mg/kg/d intraperitoneal, from day 3 p.i. for 5 days, 21 days) was 20%, the survival ([2]; mouse, in vivo) was “Seventy” and the infected mice protected [1, 4] was 40%. The “infected mice protected until day 13” value ([1]; 500 TCID50 PR8, 20 mg/kg oral, until day 13) was 60%.
Work on `NC(=O)c1cnc2[nH]ccc2c1N[C@@H]1[C@@H]2CC3C[C@H]1C[C@@](O)(C3)C2` [Peficitinib] yielded an infected mice protected [1, 5] of 50%, an infected mice protected [1, 3] of 50% and a survival rate ([1]; 500 TCID50 PR8, 14 days) of 40%. The body weight [1] was “gradually regained body weight”.
For `Cc1cc(Nc2nc(N[C@@H](C)c3ccc(F)cc3)c(C#N)cc2F)[nH]n1` [AZ 960], the “protection against the lethal infection” value [1] was “did not protect”.
`Cc1cc(Nc2cc(CN3CCOCC3)c3nc(C)c(Cc4ccc(Cl)cc4F)n3n2)n[nH]1` [Gandotinib] was tested, and the “protection against the lethal infection” value [1] was “did not protect”.
With `Cc1cc(Nc2nc(N[C@@H](C)c3ncc(F)cn3)ncc2Cl)n[nH]1` [AZD1480] the “protection against the lethal infection” value [1] was “did not protect”.
`N#CC[C@@H](C1CCCC1)n1cc(-c2ncnc3[nH]ccc23)cn1` [S-Ruxolitinib] was tested, and the infected mice protected [1, 3] was 40%, the infected mice protected [1, 4] was 40% and the “recovery of body weight” value [1] was “recovered earlier and more efficiently”.
`C[C@@H]1CCN(C(=O)CC#N)C[C@@H]1N(C)c1ncnc2[nH]ccc12` [Tofacitinib] was tested, and the infected mice protected ([1]; 125 TCID50 PR8, 7.5 mg/kg oral twice daily for 5 days from day 3 p.i., listed as tofacitinib) was 50% and the “recovery of body weight” value [1] was “started earlier”.
Work on `C[C@@H]1CCN(C(=O)CC#N)C[C@@H]1N(C)c1ncnc2[nH]ccc12` [Tofacitinib citrate] yielded an infected mice protected ([1]; 125 TCID50 PR8, 7.5 mg/kg oral twice daily for 5 days from day 3 p.i., listed as tofacitinib-citrate) of 40%.
In the case of `CCS(=O)(=O)N1CC(CC#N)(n2cc(-c3ncnc4[nH]ccc34)cn2)C1` [Baricitinib], the infected mice protected [1, 5] is reported as 70%.

Counter-ions that a name gives are not always drawn. Like-named read-outs stand apart in the source and are kept apart here.
